The list shows a part of the results.
Tests used:
[1] = tested on: HSkMC (human skeletal muscle cells); assay: cytotoxicity call (relative viability < 0.9); conditions: 10 µM
[2] = tested on: HepG2; assay: cytotoxicity call (relative viability < 0.9); conditions: 10 µM
[3] = tested on: S. aureus RN4220; assay: growth inhibition call (relative growth <= 0.2); conditions: 50 µM

Row | Structure (SMILES) | cytotoxicity call [1] | cytotoxicity call [2] | growth inhibition call [3]
1 | OCc1ccccn1 | inactive | inactive | inactive
2 | OCC(O)CO | inactive |  | inactive
3 | C1N2CN3CN1CN(C2)C3 | inactive |  | inactive
4 | O=C(C[C@@H]1CC[C@@H](NS(=O)(=O)c2ccc(F)cc2)[C@@H](CO)O1)NCc1ccc(Cl)c(Cl)c1 | inactive | inactive | inactive
5 | COc1ccc([Si](C)(C)[C@H]2[C@H](CCn3cc([C@H](O)c4ccccc4)nn3)O[C@@]3(C(=O)N(Cc4cccc(N5CCC5=O)c4)c4ccccc43)[C@@H]2C)cc1 | inactive | inactive | inactive
6 | NNC(=O)c1ccncc1 | inactive |  | inactive
7 | COc1ccc2c(O[C@H]3CCCC[C@@H]3OC)nccc2c1-n1ccnc1-c1c[nH]c2c(N)c(F)cc(C#N)c12 | inactive | active | inactive
8 | COc1ccc(CN(C)C[C@@H]2Oc3ccc(NS(=O)(=O)c4c(C)noc4C)cc3C(=O)N([C@@H](C)CO)C[C@H]2C)cc1 | inactive | inactive | inactive
9 | O=C(C[C@H]1C=C[C@@H](NC(=O)c2cccnc2)[C@@H](CO)O1)NCc1ccncn1 | inactive | inactive | inactive
10 | O=C(O[C@@H]1O[C@H]2COC(=O)c3cc(O)c(O)c(O)c3-c3c(cc(O)c(O)c3O)C(=O)O[C@@H]([C@H]1O)[C@@H]2O)c1cc(O)c(O)c(O)c1 | inactive | inactive | inactive
11 | COc1ccccc1CNC(=O)C[C@@H]1CC[C@H]2[C@@H](COC[C@@H](O)CN2C(=O)Nc2ccc(F)cc2)O1 | inactive | inactive | inactive
12 | C[C@H](CO)N1C[C@H](C)[C@H](CN(C)Cc2ccc3c(c2)OCO3)Oc2ccc(NS(=O)(=O)c3cn(C)cn3)cc2CC1=O | inactive | inactive | inactive
13 | C[C@@H]1CCCCO[C@@H](CN(C)C(=O)Nc2cccc3ccccc23)[C@H](C)CN([C@@H](C)CO)C(=O)c2cc(NC(=O)NC3CCCCC3)ccc2O1 | inactive | inactive | inactive
14 | C[C@@H]1CCCCO[C@@H](CN(C)Cc2ccc(C(F)(F)F)cc2)[C@@H](C)CN([C@@H](C)CO)C(=O)c2cc(NC(=O)Nc3ccc4c(c3)OCO4)ccc2O1 | inactive | inactive | inactive
15 | C[C@@H]1CN([C@@H](C)CO)C(=O)Cc2cc(NS(=O)(=O)c3ccc(F)cc3)ccc2O[C@@H]1CN(C)CC1CC1 | inactive | inactive | inactive
16 | C[C@@H]1CN([C@H](C)CO)C(=O)Cc2cc(NS(=O)(=O)c3ccc(F)cc3)ccc2O[C@H]1CN(C)Cc1ccc(Cl)c(Cl)c1 | inactive | active | inactive
17 | COC(=O)CCCCCCC(=O)N/N=C/[C@H](O)[C@@H](O)[C@H](O)[C@H](O)CO[C@H]1O[C@H](CO)[C@H](O)[C@H](O)[C@H]1O | inactive | inactive | inactive
18 | O=C(C[C@@H]1CC[C@@H](NS(=O)(=O)c2ccc(F)cc2)[C@@H](CO)O1)N1CCC(Cc2ccccc2)CC1 | inactive | inactive | inactive
19 | CO/N=C(\C(=O)N[C@@H]1C(=O)N2C(C(=O)O)=C(CSc3nnnn3C)CS[C@H]12)c1csc(N)n1 | inactive | inactive | inactive
20 | O=C(C[C@H]1C[C@@H]2c3cc(NS(=O)(=O)c4ccc(F)cc4)ccc3O[C@@H]2[C@H](CO)O1)NCc1cccc(F)c1 | inactive | inactive | inactive

Row | Structure (SMILES) | cytotoxicity call [1] | cytotoxicity call [2] | growth inhibition call [3]
21 | COC(=O)CCC(=O)CN | inactive | inactive | inactive
22 | C[C@H](CO)N1C[C@H](C)[C@@H](CN(C)C(=O)C2CCCCC2)OCCCC[C@H](C)Oc2ccc(NC(=O)CCC(F)(F)F)cc2C1=O | inactive | inactive | inactive
23 | COC(=O)[C@@H](Cc1ccccc1)N[C@H](/C=C/C1CC1)[C@@H](O)CCn1cc(-c2cccc(/C=C/C(=O)NO)c2)nn1 | inactive | inactive | inactive
24 | COCC(=O)Nc1ccc2c(c1)C(=O)N(C)C[C@H](OC)[C@@H](C)CN(C(=O)Cc1ccccn1)[C@H](C)CO2 | inactive | active | inactive
25 | C[C@H]1CN([C@@H](C)CO)S(=O)(=O)c2ccc(C#Cc3ccccc3F)cc2O[C@H]1CN(C)C(=O)c1ccc2c(c1)OCO2 | inactive | inactive | inactive
26 | O=C1O[C@H](c2ccccc2)[C@H](c2ccccc2)N2[C@H]1[C@@H](C(=O)N1CCCCCCC1)[C@]1(C(=O)Nc3ccc(C#CC4(O)CCCCCC4)cc31)[C@H]2c1ccc(OCCO)cc1 | inactive | inactive | inactive
27 | C[C@@H]1CN([C@H](C)CO)C(=O)Cc2cc(NC(=O)Nc3cccc4ccccc34)ccc2O[C@@H]1CN(C)Cc1ccncc1 | inactive | active | inactive
28 | Cc1ccc(S(=O)(=O)Nc2ccc3c(c2)C(=O)N([C@@H](C)CO)C[C@H](C)[C@H](CN(C)C(=O)Cc2ccccc2)OCCCC[C@H](C)O3)cc1 | inactive | inactive | inactive
29 | C=CC(C1=CC(=O)C=CC1=O)c1ccccc1 (centres undefined) | inactive | active | inactive
30 | C[C@@H]1CN([C@@H](C)CO)C(=O)Cc2cc(NC(=O)Cc3cn(C)c4ccccc34)ccc2O[C@@H]1CN(C)C(=O)Nc1ccc(C(F)(F)F)cc1 | inactive | inactive | inactive
31 | CC(C)[C@@H](CS(=O)(=O)C(C)C)N1C(=O)[C@@](C)(CC(=O)O)C[C@H](c2cccc(Cl)c2)[C@H]1c1ccc(Cl)cc1 | inactive | inactive | inactive
32 | O=C(C[C@@H]1C=C[C@H](NS(=O)(=O)c2ccc(F)cc2)[C@@H](CO)O1)NCCN1CCCCC1 | inactive | inactive | inactive
33 | S=P(N1CC1)(N1CC1)N1CC1 | inactive |  | inactive
34 | C[C@H](CO)N1C[C@H](C)[C@H](CN(C)C(=O)C2CCCCC2)OCCCC[C@H](C)Oc2ccc(NS(=O)(=O)c3ccccc3)cc2C1=O | inactive | inactive | inactive
35 | C=CC(=O)NC(C)(C)CCN1CCOCC1 | inactive | inactive | inactive
36 | C[C@@H]1CCCCO[C@H](CN(C)C(=O)Nc2cccc3ccccc23)[C@H](C)CN([C@H](C)CO)C(=O)c2cc(NS(=O)(=O)c3ccc(Cl)cc3)ccc2O1 | inactive | active | inactive
37 | OCc1ccccc1O | inactive |  | inactive
38 | CNC(=O)c1cc(S(=O)(=O)N(C)C[C@@H]2Oc3ccc(NC(=O)Nc4ccc(F)cc4)cc3CC(=O)N([C@@H](C)CO)C[C@@H]2C)cs1 | inactive | inactive | inactive
39 | C[C@H](CO)N1C[C@H](C)[C@H](CN(C)Cc2ccncc2)Oc2ccc(NS(=O)(=O)c3ccc(F)cc3)cc2C1=O | inactive | inactive | inactive
40 | COCC(=O)Nc1ccc2c(c1)OC[C@H](C)N(Cc1cccc(F)c1)C[C@H](C)[C@@H](OC)CN(C)C2=O | inactive | inactive | inactive

Row | Structure (SMILES) | cytotoxicity call [1] | cytotoxicity call [2] | growth inhibition call [3]
41 | O=C1N(Cc2ccccc2)Cc2ccccc2[C@H]2OC(c3ccc(OCCCO)cc3)=N[C@@]12CCS(=O)(=O)c1ccccc1 | inactive | inactive | inactive
42 | O=C(C[C@@H]1CC[C@@H]2[C@H](COC[C@@H](O)CN2S(=O)(=O)c2ccccc2Cl)O1)NCCc1ccncc1 | inactive | inactive | inactive
43 | COC(=O)[C@@H]1C(=O)NC[C@H]1c1cccnc1 | inactive | inactive | inactive
44 | C[C@H](CO)N1C[C@H](C)[C@H](CN(C)Cc2ccc(Oc3ccccc3)cc2)Oc2ccc(NC(=O)NC3CCCCC3)cc2CC1=O | inactive | inactive | inactive
45 | C[C@H]1CN([C@@H](C)CO)C(=O)Cc2cc(NC(=O)CCN3CCOCC3)ccc2O[C@@H]1CN(C)C(=O)NC1CCCCC1 | inactive | inactive | inactive
46 | C[C@@H]1CN([C@@H](C)CO)C(=O)c2cc(NC(=O)CCCN(C)C)ccc2O[C@@H](C)CCCCO[C@@H]1CN(C)S(=O)(=O)c1cn(C)cn1 | inactive | inactive | inactive
47 | CC(C)NC(=O)Nc1ccc2c(c1)C(=O)N([C@H](C)CO)C[C@@H](C)[C@H](CN(C)Cc1ccccc1)OCCCC[C@@H](C)O2 | inactive | inactive | inactive
48 | C[C@H]1CN([C@@H](C)CO)C(=O)c2cc(NC(=O)Nc3cccc4ccccc34)ccc2O[C@H]1CN(C)C(=O)Nc1ccc(C(F)(F)F)cc1 | inactive | inactive | inactive
49 | CSc1nc(=O)c(C)n[nH]1 | inactive | inactive | inactive
50 | C[C@@H]1CN([C@@H](C)CO)S(=O)(=O)c2ccc(C#CC3(O)CCCC3)cc2O[C@H]1CN(C)C(=O)Cc1ccncc1 | inactive | inactive | inactive
51 | C[C@H](CO)N1C[C@H](C)[C@@H](CN(C)S(C)(=O)=O)Oc2c(NC(=O)c3ccc(-c4nccs4)cc3)cccc2C1=O | inactive | inactive | inactive
52 | COc1cccc(-c2ccc3c(c2)O[C@@H](CN(C)C(=O)C2CCC2)[C@H](C)CN([C@H](C)CO)S3(=O)=O)c1 | inactive | inactive | inactive
53 | COc1cccc(NC(=O)N2C[C@H](O)COC[C@H]3O[C@@H](CC(=O)NCc4ccccc4F)CC[C@@H]32)c1 | inactive | inactive | inactive
54 | COc1ccc(CN(C)C[C@H]2OCCCC[C@H](C)Oc3ccc(NC(=O)c4ccncc4)cc3C(=O)N([C@H](C)CO)C[C@@H]2C)cc1 | inactive | inactive | inactive
55 | C[C@H](CO)N1C[C@H](C)[C@@H](CN(C)S(=O)(=O)c2cn(C)cn2)Oc2ccc(NC(=O)c3ccncc3)cc2C1=O | inactive | inactive | inactive
56 | NCC(=O)Nc1ccc(Br)cc1 | inactive | inactive | inactive
57 | C[C@H]1CN([C@@H](C)CO)C(=O)c2cc(NC(=O)Cc3ccccc3)ccc2O[C@@H]1CN(C)Cc1ccc(C(F)(F)F)cc1 | inactive | inactive | inactive
58 | CC(=O)OC1CC2C(C)(C)C(O)CCC2(C)C2CCC3(C)C(c4ccoc4)OC(=O)C4OC43C12C (centres undefined) | inactive | inactive | inactive

Reference: the antibiotic and cytotoxicity screens of Wong et al. (2023)
